# PubChem BioAssay AID1454 (National Center for Advancing Translational Sciences (NCATS), 2008)
# The whole screen tested about 130,000 compounds, of which about 550 (0.42%) were called active. Inconclusive results, whose numbers are uncertain, are shown with a selection of clear calls. Calls come from the whole dose curve; as a rule, active = well fitted inhibition curve with a large enough effect; inconclusive = small, poorly fitted or top-dose-only effect, or effect the other way; inactive = flat fitted curve, though single readings scatter. Potencies of inconclusive entries are left out as doubtful fits.
# Test: qHTS Assay for Inhibitors of the ERK Signaling Pathway using a Homogeneous Screening Assay; Stimulation with EGF; note: nearly all actives have a fitted effect of over 55% in size;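 for activity change, negative = inhibition: plate controls were stimulated vehicle wells for no effect and unstimulated vehicle basal for full effect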
# Conditions: HEK293-V1b, EGF-stimulated phospho-ERK AlphaScreen; activity change, negative = inhibition: at the top concentration
# Procedure, shortened: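 Compounds are titrated over HEK293-V1b cells kept overnight in 1% FBS. After 30 min at 37C, EGF (25 nM final) triggers ERK phosphorylation for 5 min, measured by AlphaScreen in lysates.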
# Potency is the fitted concentration of half-maximal effect; tags give direction and shape of the fitted curve.
Compound,Potency,"activity change, negative = inhibition"
CC1(C)C(=O)Nc2ccccc2N1C(=O)Cn1ncc(Cl)c(Cl)c1=O,"inconclusive [inhibitor, partial curve, poor fit]",–
Nc1nc(Nc2cccc(F)c2)nc(NCc2ccco2)c1[N+](=O)[O-],"inconclusive [inhibitor, single point]",–
c1ccc(N2CC3CCc4ccccc4C3=N2)cc1 (centres undefined),"inconclusive [activator, partial curve]",–
COc1ccc(-c2csc(NC(=O)c3ccc(OCC(=O)N4CCOCC4)c(OC)c3)n2)cc1,"inconclusive [inhibitor, single point]",–
CN(C)CCNc1nc2sc3c(c2c(=O)n1CCc1ccccc1)CCCCC3,"inconclusive [inhibitor, single point]",–
COc1cccc(/C=N/NC(=S)NC2CC3CCC2C3)c1OC (centres undefined),"inconclusive [inhibitor, partial curve, poor fit]",–
COc1cc(CCN2C(=O)N[C@@H](c3ccccc3)C(C(C)=O)=C2C)cc(OC)c1OC,–,inactive: 5.09%
Cc1ccc(OCCNc2cc(N3CCN(CCO)CC3)ccc2[N+](=O)[O-])cc1C,"inconclusive [inhibitor, single point]",–
CC(Sc1nc2ccccc2s1)C(=O)c1c(N)n(C)c(=O)n(C)c1=O (centres undefined),"inconclusive [inhibitor, partial curve]",–
O=C1C=CC(=O)C(C2=C3C(=O)N(CCc4ccccc4)CC(=O)N3CCC2)=C1,"inconclusive [inhibitor, single point]",–
COCCn1c(SCC(=O)c2ccccc2)nc2c(c1=O)SCC2,"inconclusive [inhibitor, partial curve]",–
Cc1cccc(CNc2cc(-c3cccc(NS(C)(=O)=O)c3)ncn2)c1,–,inactive: 16.8%
COc1ccc(C(=O)CSc2nnn(-c3cccc(NC(C)=O)c3)n2)cc1,"inconclusive [inhibitor, partial curve]",–
COCCNc1nc2nonc2nc1N1CCCC1c1nccs1 (centres undefined),–,inactive: -14.3%
CCOC(=O)c1csc(NC(=O)c2ccc(N3C(=O)CCC3=O)cc2)n1,–,inactive: -14.9%
Brc1ccc(N=Nc2ccc3ccccc3n2)cc1,"inconclusive [inhibitor, partial curve]",–
CCc1ccc(S(=O)(=O)c2nnn3c2nc(NCCNC(C)=O)c2ccccc23)cc1,–,inactive: -14.9%
COC(=O)c1cc2c(s1)CS(=O)C2 (centres undefined),"inconclusive [inhibitor, single point]",–
COc1cc(/C=N/N=C2/C(=O)Nc3ccccc32)cc(OC)c1O,"inconclusive [inhibitor, partial curve]",–
O=S(=O)(CCc1ccccc1)c1nnnn1C1CCCCC1,–,inactive: -3.46%
OC(COCc1ccc(Cl)cc1)CN1CCc2ccccc2C1 (centres undefined),–,inactive: 0.494%
C/C(=N\N1CCN(Cc2ccc(Cl)cc2)CC1)c1ccc([N+](=O)[O-])cc1,"inconclusive [inhibitor, single point]",–

Compound,Potency,"activity change, negative = inhibition"
OCCC1CN(Cc2nc(-c3ccc(F)cc3)cs2)CCN1CCc1ccccc1 (centres undefined),"inconclusive [inhibitor, single point]",–
COC(=O)N1CCC2(CCCN(C(=O)Nc3ccccc3)C2)CC1,–,inactive: -6.15%
COC(=O)Cc1ccc2oc(-c3cccnc3)nc2c1,"inconclusive [inhibitor, single point]",–
O=C(Cn1cncc1-c1ccc([N+](=O)[O-])cc1)Nc1cccc2ccccc12,–,inactive: 9.56%
CC(=O)Nc1cccc(OCC(=O)/C=C2\N(C)c3ccccc3C2(C)C)c1,"inconclusive [inhibitor, single point]",–
Nc1ccc(-c2nc3ccc(-c4nc5ccc(N)cc5[nH]4)cc3[nH]2)cc1,–,inactive: 8.22%
COC(=O)CC1C(C)(C)C(OC(C)=O)C2CC3C4CC(=O)OC(c5ccoc5)[C@]4(C)CCC3[C@@]1(C)C2=O (some centres undefined),–,inactive: 6.45%
Cc1noc(C)c1C(=O)N1CCC[C@@]2(CCN(C(=O)NC(C)C)C2)C1,–,inactive: 1.34%
CC(=O)O[C@H]1C[C@@]2(C)[C@@H](C[C@@H](O)[C@H]3[C@@]4(C)CC[C@@H](O)[C@@H](C)C4CC[C@@]32C)/C1=C(\CCC=C(C)C)C(=O)O (some centres undefined),"inconclusive [inhibitor, single point]",–
Cc1ccc(CN2CCN(/N=C/c3ccccc3)CC2)cc1,"inconclusive [inhibitor, partial curve]",–
O=C(Cn1cnc2c(nnn2Cc2ccccc2)c1=O)c1ccccc1,"inconclusive [inhibitor, partial curve, poor fit]",–
CCCCCc1cc(=O)oc2c(C(CCN(CC)CC)c3ccc(N(C)C)cc3)c(OC)cc(OC)c12 (centres undefined),"inconclusive [inhibitor, partial curve, poor fit]",–
S=C(NCCc1ccccc1)Nc1c(Cl)cccc1Cl,"inconclusive [inhibitor, single point]",–
COC(=O)CC1C2(C)CC34OC5(C)O[C@@]6(C7/C(=C(/O)C(C)C)C(=O)OC(c8ccoc8)[C@]7(C)C(OC(C)=O)C(OC(C)=O)[C@]6(O5)[C@@]13C)C(OC(C)=O)[C@]4(O)C2OC(=O)C(C)C (some centres undefined),–,inactive: 7.42%
CCC/C=C/C(C)O (centres undefined),–,inactive: -11.3%
C(=N\Nc1nc(-c2ccccc2)cs1)/c1ccco1,"inconclusive [inhibitor, partial curve]",–
CC1CC(=S)Nc2ccccc2N1Cc1ccccc1 (centres undefined),"inconclusive [inhibitor, single point]",–
CN1CCC(C2(O)c3ccccc3CCc3ccccc32)CC1,"inconclusive [activator, full curve, poor fit]",–
CCOC(=O)C1CCN(C(=O)COc2ccc(Br)cc2C)CC1,"inconclusive [inhibitor, single point]",–
Fc1cccc(Nc2ncnc3[nH]ncc23)c1,active: 25.1 µM,–
O=C(CCCN1C(=O)/C(=C/c2ccccc2Cl)SC1=S)NNC(=O)c1cccnc1,"inconclusive [inhibitor, partial curve]",–
O=c1c(-c2ccccc2)nc2cncnc2n1Cc1ccc(F)cc1,"inconclusive [inhibitor, single point]",–

Compound,Potency,"activity change, negative = inhibition"
Cn1c(=O)c2c(ncn2CC(=O)N/N=C/c2c[nH]c3ccccc23)n(C)c1=O,"inconclusive [activator, single point]",–
COc1ccc(C(CC(=O)O)NC(=O)c2cc3cc(Br)ccc3oc2=O)cc1OC (centres undefined),"inconclusive [inhibitor, single point]",–
CCN(Cc1ccncc1)C(=S)Nc1ccccc1,"inconclusive [activator, full curve, poor fit]",–
O=C1CCCCc2sc(Br)c([N+](=O)[O-])c2N1,"inconclusive [inhibitor, single point]",–
CC[C@@H](C)[C@H]1O[C@]2(CC[C@@H]1C)C[C@@H]1C[C@@H](C/C=C(\C)[C@@H](O[C@H]3C[C@H](OC)[C@@H](O[C@H]4C[C@H](OC)[C@@H](O)[C@H](C)O4)[C@H](C)O3)[C@@H](C)/C=C/C=C3\CO[C@@H]4[C@H](O)C(C)=C[C@@H](C(=O)O1)[C@]34O)O2,"inconclusive [inhibitor, single point]",–
Cc1ccc(NC(=O)Cn2c(O)c(N=NC(N)=O)c3ccccc32)cc1,"inconclusive [inhibitor, single point]",–
CCN1CCCc2cc(CN(CCN3CCOCC3)C(=S)Nc3ccc(C)cc3)ccc21,"inconclusive [inhibitor, partial curve]",–
CN1CCN(C(=O)CCN2C(=O)/C(=C\c3ccc(Cl)cc3Cl)SC2=S)CC1,"inconclusive [inhibitor, single point]",–
C=CCN1C(=O)c2cccc3c(N4CCCCC4)ccc(c23)C1=O,"inconclusive [activator, partial curve]",–
CN1C(=O)S/C(=C/c2ccccc2OCc2ccc(C(=O)O)cc2)C1=O,"inconclusive [activator, full curve, poor fit]",–
Cc1noc(C)c1-c1nccc(N2CCNCC2)n1,–,inactive: 24.2%
COC(=O)c1ccc(C(NC(=O)c2ccco2)[C@]2(C)C[C@H]2C2CCCCC2)cc1 (some centres undefined),–,inactive: 7.4%
COc1ccc(CSC2=CS(=O)(=O)c3ccccc3N2)cc1,"inconclusive [inhibitor, partial curve]",–
CC1(C)OC(c2ccccc2)=C/C(=C/C=C2C(=O)c3ccccc3C2=O)O1,"inconclusive [inhibitor, partial curve]",–
Cc1cc(C)c2ccc3c(C)c(C)n(C)c3c2n1,"inconclusive [inhibitor, single point]",–
Cn1nnnc1SCC(=O)N(C1CCCCC1)C1CCS(=O)(=O)C1 (centres undefined),–,inactive: 2.9%
COCCn1c(=O)[nH]c(=O)c2c1nc(-c1cc(Br)c3c(c1)OCO3)n2Cc1ccccc1,"inconclusive [inhibitor, single point]",–
CN(c1ccccc1)c1nc(N)c([N+](=O)[O-])c(NCc2ccccc2)n1,"inconclusive [inhibitor, single point]",–
CC(C)(C)OC(=O)[C@H]1[C@H](c2ccc([N+](=O)[O-])cc2)C2(C(=O)c3ccccc3C2=O)C2c3ccccc3C=NN21 (some centres undefined),"inconclusive [inhibitor, single point]",–
CS(=O)(=O)n1nc(-c2cccnc2)nc1NCc1ccccc1,"inconclusive [inhibitor, single point]",–
